Measured values taken from PubChem BioAssay AID1963576 (National Center for Advancing Translational Sciences (NCATS), 2024).
In all, about 46,000 compounds went through this assay and about 60 (0.1%) were called active. Another 3% or so got no clear call; they are omitted. Calls follow the shape of the dose curve; as a rule, active = well fitted inhibition curve with a large enough effect; inconclusive = small, poorly fitted or top-dose-only effect; inactive = no such curve, though single readings can be large or run the other way. This is one part of the list.

Assay: Primary qHTS assay for Inhibitors of ovarian cancer metastasis using an organotypic tumor microenvironment (TME) model. Also: nearly all actives have a fitted effect of over 65% in size.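 As to activity change, negative = inhibition: plate controls were DMSO wells for no effect and tomatine positive control wells for full effect.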
Details: SKOV3ip1-GFP adhesion/invasion on 3D omental model, fluorescence; series mostly up to 45.8 µM; activity change, negative = inhibition: at the top concentration
Procedure, shortened: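 A 3D layer of primary human omental fibroblasts, mesothelial cells, fibronectin and collagen I, grown 48 hr, received SKOV3ip1-GFP cells in serum-free medium plus compounds at 0.36-46 umol/L. After 2 hr RT and 16 hr 37 C, fixed adherent GFP cells were counted; normalized to DMSO and tomatine.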

Activity change, negative = inhibition, inactive:
CCc1cccc(-n2c(=O)c3cccnc3n2CC(=O)NCc2ccccc2Cl)c1 9.27%
CCOC(=O)c1[nH]c(C)c(CCC(=O)NCc2ccc(C)cc2)c1C 16.8%
CCOC(=O)c1ccc(NC(=O)CCc2c(C)n(CC)c3cc(-c4ccccc4OC)nn3c2=O)cc1 -17.4%
CCOCCCNC(=O)c1cc2c(=O)n3ccccc3nc2s1 -2.19%
COc1ccc(N2CCN(C(=O)c3ccc(NC(=O)c4nsc5ccccc45)cc3)CC2)cc1 -1.97%
CC(C)(C)c1ccc(C(=O)Nc2cc(-c3ccccc3)nn2-c2ccccc2)cc1 0.637%
Cc1ccc(CNC(=O)CCn2ccc3cc(S(=O)(=O)N4CCCC4)ccc32)cc1 8.25%
O=C(CN1CCN(c2ccc(Cl)cc2)CC1)Nc1ccc(Cl)c(C(F)(F)F)c1 -1.46%
CC1CCN(C(=O)CSc2nc3c([nH]c4ccccc43)c(=O)n2-c2ccccc2)CC1 -2.21%
Cc1ccc(CSc2oc(-c3ccco3)nc2S(=O)(=O)c2ccc(Br)cc2)cc1 -3.71%
Cc1ccc(CNc2nc3c(S(=O)(=O)c4ccc(C)c(C)c4)nnn3c3ccc(Cl)cc23)cc1 5.39%
COc1ccccc1NC(=O)CSc1nnc(-c2nonc2NC(C)=O)n1-c1ccccc1 11.8%
CCc1ccc(S(=O)(=O)N2CCN(c3ccc(Cl)c(Cl)c3)CC2)cc1 -6.11%
CCOC(=O)c1ccccc1NC(=O)c1nn(-c2ccc(C)cc2)c(=O)n(C)c1=O 6.48%
Cc1cccc(NC(=O)c2oc3ccc(S(=O)(=O)N(C)C4CCCCC4)cc3c2C)c1C 1.64%
CCCCN(Cc1ccco1)C(=O)c1cc2c(s1)-c1c(C)cccc1OC2 -20.7%
CCOc1cccc(C(=O)Nc2ccc(-c3nc4cc(C)cc(C)c4o3)cc2)c1 -3.39%
CCc1ccccc1NC(=O)Cn1nnc(C(=O)Nc2ccc(OC)c(OC)c2)c1N 6.11%
Cc1ccc(C(C)C)c(OCCCn2c(=O)oc3ccc(C)cc32)c1 -7.33%
Nc1nc(N)c2nc(CNc3ccc(C(=O)NC(CCC(=O)O)C(=O)O)cc3)cnc2n1 (stereo unspecified) -12.4%
CC(C)c1ccc(NC(=O)c2cnn3c(C(F)F)cc(-c4ccccc4)nc23)cc1 0.353%

outcome, inactive:
O=C(/C=C\c1ccc2c(c1)OCO2)NC1CC(=O)N(c2ccc(F)cc2)C1 (stereo unspecified)
Cc1ccc(C)c(N2CCN(C(=O)c3cc4cc5ccc(C)cc5nc4s3)CC2)c1
CC1CCN(S(=O)(=O)c2cc(C(=O)NCCc3ccccc3)n(C)c2)CC1
CCc1ccc(NC(=O)Cn2c(=O)n(Cc3nc(C)no3)c(=O)c3cc4c(cc32)OCO4)cc1
CCOc1ccc(-n2c(=O)c3c4c(sc3n(Cc3cc(=O)n5cc(Cl)ccc5n3)c2=O)CCC4)cc1
